Experimental data: patent US20210015895A1 (PROCLARA BIOSCIENCES, published 2021)

Target: T1, Aβ42 fibers (UniProt P05067 in part)
T1 construct: domain: Aβ42; Fibrillar aggregate dry-coated on ELISA plates; number of chains in a fiber not defined; also called ABeta; Abeta
Test: ELISA on coated Aβ42 fibers; IC50 ratio to SEQ ID NO:2
Description: To each well of a 96-well plate (F96 MAXISORP NUNC-IMMUNO PLATE; Catalog number: 442404, Lot 125436 and 128158; Denmark) was added 200 μL of a 1% BSA solution. The plates were sealed and incubated at 7° C. for 3 hr. Plates were then washed with PBS (250 μL/well)×3. We added 50 μL of the diluted Aβ42 fiber solution (1.6 μM) to each well and incubated uncovered at 37° C. overnight to complete dryness. PBS (50 μl/well) is added to control wells (without Aβ42 fibers). Plates were then washed 2× with water and 1× with PBS (250 μL/well for each washing).
Varying concentrations of each polypeptide (as well as the polypeptide of SEQ ID NO:2) in 50 μL were added to each well, as well as to non-Aβ42 fiber coated wells and incubated for 1 h at 37° C. Plates were then washed 3× with PBS-T (0.05% Tween 20 in PBS) and 3× with PBS (250 μL/well for each washing). We then added 50 μl of HRP-conjugated Goat anti-Human anti Fcγ (Jackson Labs, Catalog number, 109-035-008, Lot number: 106617) diluted 1:2500 (0.32 μg/mL final) in PBS-T+1% Milk (Difco™ Skim Milk, Becton, Dickinson and Company. USA, Catalog number: 232100, Lot number: 7320448) to each well and incubated for 40 min at 37° C. Plates were then washed 6× with PBS-T and 2× with PBS (250 μL/well for each washing). We then added 50 μl/well OPD solution (5 mg/7.5 ml 0.05 M Citrate buffer pH-5.513 μl H₂O₂) and let color to develop for 3-6 min. We next added 25 μl/well of 4N HCl solution to stop reaction. Plates were read for absorbance at 492 nm and 405 nm. The 405 nm absorbance was subtracted from the 492 nm absorbance and the results plotted as a function of polypeptide concentrations. An IC₅₀ for binding for each deimmunized polypeptide was then calculated and compared to the IC₅₀ calculated for the polypeptide of SEQ ID NO:2.
The above-indicated polypeptides were assayed for binding to beta-amyloid using the ELISA assay set forth in Example 5. Relative binding values reflect IC₅₀ (polypeptide of SEQ ID NO:2)/IC₅₀ (tested polypeptide) (e.g., the lower the value the greater the binding of the polypeptide as compared to a polypeptide of SEQ ID NO:2). Multiple values reflect duplicate testing in the binding assay.

| Binder | Relative Binding Value |
| --- | --- |
| Polypeptide No. 96 (Fc fusion) AETVESCLAKPHTENSFTNVWKDDKTLDRYANYEGCLWNATGVVVCTGDETQCYGTWVPIGLAIPENEGGGSEGGGSEGGGSEGGGTKPPEYGDTPIPGYTYINPLDGTYPPGTEQNPANPNPSLEESQPLNTFTFQNNRFRNRQGALTVYTGTFTQGTDPVKTYYQYTPVSSKAMYDAYHNGKFRDCAFHSGFNEDPFVCEYQGQSSDLPQPPANAGGESGGGSGGGSEGGGSEGGGSEGGGSEGGGSGGGSGSGARS[human IgG1 Fc not printed] | 0.15 ratio |
| Polypeptide No. 99 (Fc fusion) AETVESCLAKPHTENSFTNVWKDDKTLDRYANYEGCLWNATGVVVCTGDETQCYGTWVPIGLAIPENEGGGSEGGGSEGGGSEGGGTKPPEYGDTPIPGYTYINPLDGTYPPGTEQNPANPNPSLEESQPLNTFMFQNNQFRNRQGALTVYTGTFTQGTDPVKTYYQYTPVSSKAMYNAYWNGKFRDCAFHSGFNEDPFVCEYQGQSSDLPQPPANAGGESGGGSGGGSEGGGSEGGGSEGGGSEGGGSGGGSGSGARS[human IgG1 Fc not printed] | 0.11 ratio |
| Polypeptide No. 101 (Fc fusion) AETVESCLAKPHTENSFTNVWKDDKTLDRYANYEGCLWNATGVVVCTGDETQCYGTWVPIGLAIPENEGGGSEGGGSEGGGSEGGGTKPPEYGDTPIPGYTYINPLDGTYPPGTEQNPANPNPSLEESQPLNTFMFQNNQFRNRQGALTVYTGTFTQGTDPVKTYYQYTPVSSKAMYDAYRNGKFRDCAFHSGFNEDPFVCEYQGQSSDLPQPPANAGGESGGGSGGGSEGGGSEGGGSEGGGSEGGGSGGGSGSGARS[human IgG1 Fc not printed] | 0.2 ratio |
| Polypeptide No. 100 (Fc fusion) AETVESCLAKPHTENSFTNVWKDDKTLDRYANYEGCLWNATGVVVCTGDETQCYGTWVPIGLAIPENEGGGSEGGGSEGGGSEGGGTKPPEYGDTPIPGYTYINPLDGTYPPGTEQNPANPNPSLEESQPLNTFMFQNNQFRNRQGALTVYTGTFTQGTDPVKTYYQYTPVSSKAMYDAYHNGKFRDCAFHSGFNEDPFVCEYQGQSSDLPQPPANAGGESGGGSGGGSEGGGSEGGGSEGGGSEGGGSGGGSGSGARS[human IgG1 Fc not printed] | 0.36 ratio |
| Polypeptide No. 97 (Fc fusion) AETVESCLAKPHTENSFTNVWKDDKTLDRYANYEGCLWNATGVVVCTGDETQCYGTWVPIGLAIPENEGGGSEGGGSEGGGSEGGGTKPPEYGDTPIPGYTYINPLDGTYPPGTEQNPANPNPSLEESQPLNTFTFQNNRFRNRQGALTVYTGTFTQGTDPVKTYYQYTPVSSKAMYDAYRNGKFRDCAFHSGFNEDPFVCEYQGQSSDLPQPPANAGGESGGGSGGGSEGGGSEGGGSEGGGSEGGGSGGGSGSGARS[human IgG1 Fc not printed] | 0.14 ratio |
| Polypeptide No. 102 (Fc fusion) AETVESCLAKPHTENSFTNVWKDDKTLDRYANYEGCLWNATGVVVCTGDETQCYGTWVPIGLAIPENEGGGSEGGGSEGGGSEGGGTKPPEYGDTPIPGYTYINPLDGTYPPGTEQNPANPNPSLEESQPLNTFMFQNNQFRNRQGALTVYTGTFTQGTDPVKTYYQYTPVSSRAMYDAYWNGKFRDCAFHSGFNEDPFVCEYQGQSSDLPQPPANAGGESGGGSGGGSEGGGSEGGGSEGGGSEGGGSGGGSGSGARS[human IgG1 Fc not printed] | 0.23 ratio |

Target: T1, Aβ42 fibers
Test: ELISA on coated Aβ42 fibers

T1 sequence (P05067 672-713 limits assumed): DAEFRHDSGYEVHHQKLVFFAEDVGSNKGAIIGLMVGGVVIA

| Binder | binding result |
| --- | --- |
| mature fusion protein of SEQ ID NO:1 omitting M258 and V259 (Fc fusion, also called mature fusion protein lacking M258 and V259) AETVESCLAKPHTENSFTNVWKDDKTLDRYANYEGCLWNATGVVVCTGDETQCYGTWVPIGLAIPENEGGGSEGGGSEGGGSEGGGTKPPEYGDTPIPGYTYINPLDGTYPPGTEQNPANPNPSLEESQPLNTFMFQNNRFRNRQGALTVYTGTFTQGTDPVKTYYQYTPVSSKAMYDAYWNGKFRDCAFHSGFNEDPFVCEYQGQSSDLPQPPVNAGGGSGGGSGGGSEGGGSEGGGSEGGGSEGGGSGGGSGSGARS[human IgG1 Fc not printed] | binds |
